Test results reported in PubChem BioAssay AID1346428 (National Center for Advancing Translational Sciences (NCATS), 2018).
Values joined by “and” are separate entries in the source; they are usually repeats but may differ in a detail not shown here. Equal values may be shown once. Out of some 48,000 compounds screened, about 1,200 (2.5%) were called active. Not shown: some 2% with an inconclusive outcome.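 The calls were made as follows: active = activation of at least 60% and not above a set upper limit (about 1 call in 100 departs from these limits); inconclusive = activation of 40% to 60%, or above that upper limit; inactive = activation under 40%.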 The list shows a part of the results.

biological target: Probable G-protein coupled receptor 32 (Homo sapiens) (UniProt O75388); assay: qHTS for Agonists of Human Resolvin D1 Receptor DRV1; conditions: CHO-K1 GPR32 beta-arrestin PathHunter luminescence, 90 min; at 76.9 µM; stronger effect = higher value; zero percent set by DMSO-only wells
Chain of UniProt O75388 (O75388 whole entry, looked up): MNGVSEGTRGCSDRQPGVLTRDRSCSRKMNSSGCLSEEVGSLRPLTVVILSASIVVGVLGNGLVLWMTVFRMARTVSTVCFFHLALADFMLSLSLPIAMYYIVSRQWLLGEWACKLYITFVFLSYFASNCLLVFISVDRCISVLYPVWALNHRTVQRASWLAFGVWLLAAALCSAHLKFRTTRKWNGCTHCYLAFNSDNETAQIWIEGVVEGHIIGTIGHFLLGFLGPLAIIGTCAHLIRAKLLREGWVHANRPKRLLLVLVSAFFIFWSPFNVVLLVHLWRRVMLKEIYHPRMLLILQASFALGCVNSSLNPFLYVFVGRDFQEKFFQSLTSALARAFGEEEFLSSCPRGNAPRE
Outline: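 Beta-arrestin recruitment read-out: luminescence from complemented beta-Gal in CHO-K1 GPR32 PathHunter cells, measured 1 h after detection reagent at ambient temperature following 90 min compound exposure at 37 °C; DMSO served as basal (EC0) control.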

activation, active:
CN(C)CCNC(=O)C1CCN(Cc2cc3ccccc3n2Cc2ccccc2)CC1 63.9%, COc1ccccc1S(=O)(=O)Cc1ccc(C(=O)NCc2ccc(Cl)cc2)o1 97.6%, CC(=O)c1c(C)oc2c1cc(NS(=O)(=O)c1ccc(Br)cc1)c1ccccc12 80%

activation, inactive:
COc1ccc(CNC(=O)CN(c2ccc(C(C)C)cc2)S(=O)(=O)c2c(C)nn(C)c2C)cc1 -17%, Cc1cc(C)c(C)c(OCC(=O)Nc2ccc(S(=O)(=O)Nc3nc(C)cc(C)n3)cc2)c1 47%, Cc1ccccc1NC(=O)Nc1nnc(N2CCCCCC2)s1 -0.891%, COc1ccccc1NC(=O)CCn1nc(-c2ccccc2OC)c2c(C)cc(C)nc21 37%, CCC(=O)N1CCc2cc(Br)cc(S(=O)(=O)CCC(=O)N3CCN(c4ccc(F)cc4)CC3)c21 1.23%, Cc1ccccc1OCC(=O)OCc1cc(=O)n2nc(C3CC3)sc2n1 0.4%, CCOC(=O)C1CCCN(C(=O)C2CCN(S(=O)(=O)c3c(C)noc3/C=C/c3ccccc3F)CC2)C1 (centres undefined) -1.81%, CCc1ccc(NC(=O)CC2C(=O)N(c3cccc(C)c3)C(=O)N2CCC(C)C)cc1 (centres undefined) -19%, COc1ccccc1OCC(O)COC(N)=O (centres undefined) -10.3%, O=C(CSC1=Nc2ccccc2N=C(c2ccc(F)cc2)C1)Nc1cccc(C(F)(F)F)c1 -3.5%, COc1ccc(CC(=O)NCCc2sc3nc(-c4ccc(OC)cc4)nn3c2C)cc1 -14.2%, CCC(C)NC(=O)Cn1c(=O)n(CCCCCC(=O)NCc2ccccc2Cl)c(=O)c2sccc21 (centres undefined) -11.8%, CC(=O)c1ccc(NC(=O)c2cc(-c3ccc(C)s3)nc3ccccc23)cc1 -7.87%, O=C(NCc1cccc(Br)c1)c1cnn(-c2ccc(F)cc2)c1-n1cccc1 2.03%, CC(C)(C)CC(=O)NCC(c1ccc2c(c1)OCO2)N1CCN(c2ccccc2)CC1 (centres undefined) -23.8%, O=C1C(c2ccc(F)cc2)N(CCc2ccc(Cl)cc2)C(=O)CN1C1CCCCCC1 (centres undefined) -19.1%, CCOC(=O)N1CCc2c(sc3c2c(=O)n(CCc2ccccc2)c(=O)n3CC(=O)Nc2ccc(C)cc2)C1 -9.29%, COc1cc(NC(=O)N2c3ccccc3Sc3ccccc32)cc(OC)c1 -11.6%, O=C(CSc1nccn1-c1ccc(Cl)cc1)Nc1ccc(Cl)c(Cl)c1 -4.98%, CCOC(=O)c1ccc(NC(=O)CSc2ccc3ccccc3n2)cc1 -26.4%, COc1ccccc1C(=O)NCC(c1cccnc1)N1CCc2ccccc2C1 (centres undefined) -37.8%, CCCOC(=O)c1c(NC(=O)C(C)Sc2nc(-c3ccccc3)cc(C(F)(F)F)n2)sc(C(=O)N(C)C)c1C (centres undefined) -2.87%, CN1CCc2c(sc(NC(=O)CSc3ccccc3)c2-c2nc3ccccc3s2)C1 -33.1%, Cc1cccc(N2CCN(C(=O)CN3C(=O)CSc4c3c(C)nn4-c3ccccc3)CC2)c1C -29.9%, COc1cc(NC(=O)CCc2c(C)nn(-c3ccc4nnc(C)n4n3)c2C)cc(OC)c1OC -5.45%, CCOc1ccc(S(=O)(=O)c2c(C(=O)c3ccc(CC)cc3)cnc3ccc(C)cc23)cc1 -5.41%, CCc1ccc(NC(=O)[C@H](Cc2ccccc2)N2Cc3ccccc3C2=O)cc1 21.6%, CCOc1ccc(N2CC(NC(=O)c3cccs3)CC2=O)cc1 (centres undefined) -13.8%, CCCN(CCC)CCCNC(=O)c1cc2c(-c3ccc(OC)c(OC)c3)nn(C)c2s1 -1.27%, COc1ccc(C2C(=O)N(C3CCCCCC3)CC(=O)N2Cc2ccc(C)cc2)cc1 (centres undefined) -17.9%, O=C1CC(c2nc(-c3ccc(Cl)cc3)no2)CN1c1ccc2c(c1)OCCO2 (centres undefined) -5.41%, O=C(CSc1nc2c([nH]c3ccccc32)c(=O)n1-c1ccccc1)N1CCc2ccccc21 -4.19%, Cc1ccc(S(=O)(=O)n2nc(-c3ccccc3)nc2NCc2ccc(Cl)cc2)cc1 -1.52%, COc1cccc(CNC(=O)COc2cc(=O)n(C)c3ccccc23)c1 0.765%, Cc1ccc(-n2nnnc2CNC(=O)c2cc(C(F)(F)F)cc(C(F)(F)F)c2)cc1C -31.4%, CCCCOC(=O)CC(CC(=O)OCCCC)(OC(C)=O)C(=O)OCCCC -5.99%, O=C(Cn1nc(C(F)(F)F)c2c1CCCC2)Nc1ccc(Br)cc1 -0.4%, Cc1ccc(N2CCN(S(=O)(=O)c3cccc4ccccc34)CC2)cc1Cl -0.412%, COc1ccc(-n2ncc3c(NC4CCCC4)ncnc32)cc1 31.2%, COc1ccc(S(=O)(=O)Nc2ccc(-c3cn4c(C)csc4n3)cc2)cc1 -7.34%, O=C(Nc1cccc(C(F)(F)F)c1)c1cc(CN2CCOCC2)on1 3.56%, CCCNc1ccc(-c2nc(-c3ccccn3)no2)cc1[N+](=O)[O-] 4.3%, O=C(Nc1ccccc1F)c1ccc2c(Cl)c3c(nc2c1)CCC3 22%, CCCCNC(=O)c1ccc2c(c1)ncn2-c1cc(OC)ccc1OC -14.5%, Cc1c(Cl)cccc1-n1ncc(C(=O)Nc2ccc(Br)cc2F)c1C1CCNCC1 10.3%, CCN(CCCNC(=O)c1nn(-c2ccc(OC)cc2)c(=O)c2c1c1ccccc1n2C)c1ccccc1 -8.52%, COC(=O)c1ccc(NC(=O)CCn2cnnn2)cc1 8.23%, CCOc1ccccc1CNCc1cccn1-c1nnc(N2CCN(c3ccccc3)CC2)s1 48.3%, COc1ccccc1NC(=O)C1=C(C)Nc2nnnn2C1c1ccc(C(F)(F)F)cc1 (centres undefined) 3.45%, CCc1cccc(NC(=O)CCNS(=O)(=O)c2cccc3nonc23)c1 -11.9%, COC(=O)c1ccc(NC(=O)c2nc(-c3ccc(Cl)cc3)n3c2CCCCC3)cc1 -16.7%, Cc1ccc2nc3sc(C(=O)NCCCN(C)c4ccccc4)cc3cc2c1 -2.21%, Fc1cccc(-n2ncc3c2ncn2nc(Cc4ccccc4)nc32)c1 -3.47%, COc1ccc(NC(=O)CN(c2cc(C)cc(C)c2)S(=O)(=O)c2c(C)noc2C)cc1Cl -1.98%, COc1ccccc1CNC(=O)CCC1N=C2c3ccccc3N=C(SCc3ccc(C)cc3C)N2C1=O (centres undefined) -2.83%, CC(N=C(NC#N)Nc1ccncc1)C(C)(C)C (centres undefined) 7.91% and -7.85%, Cc1ccccc1Nc1c(-c2ccc(N3CCOCC3)cc2)nc2ccccn12 -26.5%, COc1ccc(NC(=O)CSc2ccc3nc(-c4ccccc4)cn3n2)cc1OC -13.7%, CC(C)NC(=O)c1nn(-c2ccccc2F)nc1CO -8.71%, COc1ccc(-c2nc(SCC(=O)Nc3ccc4c(c3)OCCO4)c(-c3ccc(C)cc3)[nH]2)cc1OC -34.8%, CC(C)(C)OC(=O)N1CCC(c2nnc(SCc3cccc(Cl)c3)o2)CC1 2.34%, Cc1ccc(CNC(=O)CN2C(=O)COc3ccc(S(=O)(=O)Nc4ccccc4)cc32)cc1 -5.5%, Cc1cc(C)cc(NC(=O)CSc2nc(-c3ccccc3)c3cc(F)ccc3n2)c1 -0.0932%, Cc1ccc2c(c1)-c1ncc(C(=O)c3ccccc3O)cc1CO2 -9.25%, CCc1ccc(NC(=O)CC2C(=O)N(c3cccc(OC)c3)C(=O)N2C2CCCC2)cc1 (centres undefined) -27.7%, CC(=O)OCC(=O)[C@@]1(OC(C)=O)[C@@H](C)C[C@H]2[C@@H]3C[C@H](F)C4=CC(=O)C=C[C@]4(C)[C@@]3(F)[C@@H](O)C[C@@]21C -4.15%, Cc1ccc(C(=O)NC2=NC(c3ccc(C)cc3)CC(=O)N2)cc1 (centres undefined) -11.9%, Cc1cc(C)cc(NC(=O)c2cc(CN3CCCC3)on2)c1 -12%, CC(=O)c1ccc(NC(=O)c2cc3sccc3n2Cc2ccc(F)cc2)cc1 40.5%, CCCCCOC(=O)CSc1ncnc2sc3c(c12)CCC(C)C3 (centres undefined) -8.14%, CCOC(=O)c1c(NC(=O)c2cc3ccccc3c(=O)o2)sc2c1CCC(C)C2 (centres undefined) 2.91%, CSc1ccc(CCNC(=O)CCn2c(=O)c3cccn3c3ccc(F)cc32)cc1 -31%, C[C@]1(Cn2ccnn2)[C@H](C(=O)O)N2C(=O)C[C@H]2S1(=O)=O -5.12%, COc1cc(OC)cc(C(=O)Nc2cc3c(cc2N2CCCC2)n(C)c(=O)c(=O)n3C)c1 -7.35%, COc1ccc(-n2c(=O)c3ccccc3n(CC(=O)Nc3ccccc3OC)c2=O)cc1 -0.0267%, Cc1ccc(SCC(=O)Nc2ccc3oc(-c4ccccc4C)nc3c2)cc1 11%, COc1cc(C2CC(=O)Nc3c2c(C)nn3-c2nncc(-c3ccc(C)cc3)n2)cc(OC)c1OC (centres undefined) -0.699%, CC(CN(C)C)C(C)(O)Cc1ccc(Cl)cc1 (centres undefined) -2.71%, CCOc1ccc(NC(=O)c2cnc3ccccn3c2=O)cc1 -7.71%, Cc1ccc2c(CC(=O)Nc3c(C(=O)c4ccc(C)c(F)c4)oc4ccccc34)coc2c1 -12.2%, Cc1ccc(CNC(=O)c2cc(C)nc3c2c(C)nn3-c2ccc(C)cc2)cc1 -2.22%
